Source: patent US20210130494A1 (ALETA BIOTHERAPEUTICS, published 2021)

T1: CD20 on stable transfectant line 293-CD20 (UniProt P11836 1-297)
T1 construct: whole, on cells; also called CD20 expressing 293 cells
T1 sequence (looked up): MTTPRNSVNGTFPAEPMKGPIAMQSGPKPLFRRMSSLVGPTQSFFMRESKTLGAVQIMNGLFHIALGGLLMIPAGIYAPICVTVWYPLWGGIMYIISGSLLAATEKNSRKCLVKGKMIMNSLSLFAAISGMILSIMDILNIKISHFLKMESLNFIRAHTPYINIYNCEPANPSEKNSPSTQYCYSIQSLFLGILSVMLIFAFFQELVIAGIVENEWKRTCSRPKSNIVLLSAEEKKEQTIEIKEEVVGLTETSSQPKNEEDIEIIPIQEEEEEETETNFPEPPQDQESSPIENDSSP


Key:
[1] = target: T1, CD20 on stable transfectant line …; experiment: flow cytometry, 293-CD20 cells, anti-huIgG-FITC
[2] = target: T2, EGFR on cells (A431 cells; 293T cells transiently transfected with EGFR cDNA) (UniProt P00533); experiment: flow cytometry, A431 cells, Trastuzumab-PE
T2 construct: whole, on cells; also called EGFR-positive cell

binding result [1]	binding result [2]	Binder
no binding (tested: 200 µl)		CD19-D1+2-Leu16 scFv (VL/VH)-huIgGFc (construct #84) (Fc fusion) PEEPLVVKVEEGDNAVLQCLKGTSDGPTQQLTWSRESPLKPFLKLSLGLPGLGIHMRPLAIWLFIFNVSQQMGGFYLCQPGPPSEKAWQPGWTVNVEGSGELFRWNVSDLGGLGCGLKNRSSEGPSSPSGKLMSPKLYVWAKDRPEIWEGEPPCLPPRDSLNQSLSQDLTMAPGSTLWLSCGVPPDSVSRGPLSWTHVHPKGPKSLLSLELKDDRPARDMWVMETGLLLPRATAQDAGKYYCHRGNLTMSFHLEITARPGGGGSGGGGSGGGGSGGGGSDIELTQSPTILSASPGEKVTMTCRASSSVNYMDWYQKKPGSSPKPWIYATSNLASGVPARFSGSGSGTSYSLTISRVEAEDAATYYCQQWSFNPPTFGGGTKLEIKRGGGGSGGGGSGGGGSMAQVKLQESGAELVKPGASVKMSCKASGYTFTSYNMHWVKQTPGQGLEWIGAIYPGNGDTSYNQKFKGKATLTADKSSSTAYMQLSSLTSEDSADYYCARSNYYGSSYWFFDVWGQGTTVTVSSAAAGDPA[letters of human IgG1 Fc with C220P (EU numbers) left out]
	binds	Her2-D4-Panitumumab scFv (VH/VL) (construct #58) (other, C-terminal His tag; also called Her2 extracellular D4-Panitumumab scFv VH-VL-His; Her2-anti-EGFR scFv fusion protein) NRPEDECVGEGLACHQLCARGHCWGPGPTQCVNCSQFLRGQECVEECRVLQGLPREYVNARHCLPCHPECQPQNGSVTCFGPEADQCVACAHYKDPPFCVARCPSGVKPDLSY[letters of about 40 residues left out]GGGGSGGGGSGGGGSGGGGSQVQLQESGPGDVKPSETLSLTCTVSGGSVSSGDYYWTWIRQSPGKGLEWIGHIYYSGNTNYNPSLKSRLTISIDTSKTTFSLQLSSVTGEDTAIYYCVRDRVTGAFDIWGQGTTVTVSSASTGGGGSGGGGSGGGGSGGGGSDIQMTQSPSSLEASVGDRVTITCQASQDISNYLNWYQQKPGKSPKLLIYDASNLETGVPDRFSGSGSGTDFTFTISSLQAEDEGTYFCQHFDHLPLAFGGGTKLEIKRTHHHHHH
